The record followed here is PubChem BioAssay AID1745853 (National Center for Advancing Translational Sciences (NCATS), 2022).

Holding throughout (test): Primary Screen for Target Class Profiling of Small Molecule Inhibitors of Methyltransferases
Experiment [1] addresses Glycine N-methyltransferase (Homo sapiens) (UniProt Q14749). Particulars: purified enzyme, MTase-Glo SAH luminescence; measured here: GNMT inhibition; at 40 µM; stronger effect = lower value. An excerpt: (§1) PI: Matthew D. Hall Ph.D. and Quinlin M. Hanson Ph.D.
(§2) National Center for Advancing Translational Sciences (NCATS)
(§3) National Institute of Health (NIH), Rockville, MD
(§4) Target class profiling (TCP) is a chemical biology approach amenable to investigating understudied biological targets. TCP is achieved by developing a generalizable assay platform and applying it to screen a curated set of compound libraries against representative members of a target class. Small molecule methyltransferases (SMMTase) are a subclass of methyltransferase that act on metabolites to modulate signaling pathways, metabolize xenobiotics, or balance the available methyl pool. We screened four curated libraries totaling 27,574 unique compounds against the SMMTases nicotinamide N-methyltransferase (NNMT), phenylethanolamine N-methyltransferase (PNMT), histamine N-methyltransferase (HNMT), glycine N-methyltransferase (GNMT), catechol O-methyltransferase (COMT), and guanidinoacetate N-methyltransferase (GAMT). The data generated by this TCP can be leveraged for informed tool molecule development. For example, in the associated publication we identified a chemotype of HNMT-selective inhibitors. Additionally, we identified a putative SMMTase-selective inhibitor with potential as a tool molecule for studying broader methyltransferase biology.
(§5) High-through put screening assays were developed at the National Center for Advancing Translational Science (NCATS) for the enzymes NNMT, PNMT, HNMT, GNMT, COMT, and GAMT. Enzymatic activity was measured as a function of SAM cofactor conversion using the MTase Glo kit (Promega) for all enzymes. All assays were performed in 1536-well format with substrates and SAM concentrations at KM values. Enzyme concentration and assay timing were optimized for 10-20% SAM conversion. Initial screening of 27,574 compounds was done as single-point assays using the highest compound concentration (40 uM). […] These compounds were replated in 11-point dose response and assayed against NNMT, PNMT, HNMT, GNMT, COMT, GAMT, and a counter-assay. The IC50 and efficacy (maximal response) values were determined for each dose-response curve. These values are also accounted for in the area under the curve (AUC) values.
(§6) PROTOCOL TABLE (as described by Inglese J, Shamu CE and Guy RK. 2007)
(§7) SEQUENCE No. (e.g., 1, 2, 3, etc.); […] (e.g., Cells, Incubation, Reagent, etc.); VALUE; DESCRIPTION.
(§8) 1; Reagent; 2 uL; SMMTase Enzyme (2x) in reaction buffer, columns 1- 48.
(§9) 2; Reagent; 1 uL; SAM (4x) in reaction buffer, columns 1-48.
(§10) 3; Controls; 23 nL; DMSO in column 4; sinefungin in DMSO (0 uM - 40 uM) in 7-point 1:2 dilution series (n = 2) in column 2.
(§11) 4; Compounds; 23 nL; Columns 5-48.
(§12) 5; Reagent; 1 uL; Substrate (4x) in reaction buffer, columns 2-48.
(§13) 6; Time; 20-30 min; Incubation.
(§14) 7; Reagent; 1 uL; MTase-Glo reagent (5X), columns 1-48.
(§15) 8; Time; 30 min; Incubation.
(§16) 9; Reagent; 5 uL; MTase-Glo Detection reagent, columns 1-48.
(§17) 10; Time; 30 min; Incubation, luminescence evolution.
(§18) 11; Detection; Luminescence; ViewLux uHTS Microplate Imager (PerkinElmer).
(§19) NOTES (numbers refer to Sequence numbers above)
(§20) 1, 2, 5. White Medium Binding Greiner 1536-well plates (Cat #789175-F, Greiner Bio-One, Monroe, NC); Reaction buffer: 50 mM Tris, pH 8.0, 3 mM MgCl2, 1 mM EDTA, 50 mM NaCl, 1 mM DTT, and 0.1 mg/mL BSA. Evaporation was prevented by covering assay plates with metal lids containing holes to allow gas diffusion.
(§21) 1. Six SMMTase were profiled: HNMT, GNMT, PNMT, COMT, NNMT, GAMT
(§22) 5. The corresponding substrate was used for each enzyme: HNMT - 5.3 uM Histamine; GNMT - >500 uM Glycine; PNMT - 16.2 uM Norephinephrine; COMT - 13.7 uM Norephinephrine; NNMT - 3.8 uM Nicotinamide; GAMT - 2.5 uM Guanidinoacetate.6, 8, 10. Room temperature
(§23) 6. Final reaction conditions: 10 nM COMT, 5 uM SAM, 15 uM norepinephrine, 50 mM Tris, pH 8.0, 3 mM MgCl2, 1 mM EDTA, 50 mM NaCl, 1 mM DTT, and 0.1 mg/mL BSA; refer to tables 2 and S1 for specific timing.
8. […]

Experiment [2] deals with Guanidinoacetate N-methyltransferase (Homo sapiens) (UniProt Q14353). Conditions: purified enzyme, MTase-Glo SAH luminescence; measured here: GAMT inhibition; at 40 µM; stronger effect = lower value.
Source text: as §1, §2, §3, §4, §5, §6, §7, §8, §9, §10, §11, §12, §13, §14, §15, §16, §17, §18, §19, §20, §21, §22, §23
8. […]

Experiment [3] deals with Histamine N-methyltransferase (Homo sapiens) (UniProt P50135). Particulars: purified enzyme, MTase-Glo SAH luminescence; measured here: HNMT inhibition; at 40 µM; stronger effect = lower value.
Source text: as §1, §2, §3, §4, §5, §6, §7, §8, §9, §10, §11, §12, §13, §14, §15, §16, §17, §18, §19, §20, §21, §22, §23
8. […]

Experiment [4] has as its target Nicotinamide N-methyltransferase (Homo sapiens) (UniProt P40261). Conditions: purified enzyme, MTase-Glo SAH luminescence; measured here: NNMT inhibition; at 40 µM; stronger effect = lower value.
Source text: as §1, §2, §3, §4, §5, §6, §7, §8, §9, §10, §11, §12, §13, §14, §15, §16, §17, §18, §19, §20, §21, §22, §23
8. […]

Experiment [5] concerns the target Phenylethanolamine N-methyltransferase (Homo sapiens) (UniProt P11086). Particulars: purified enzyme, MTase-Glo SAH luminescence; measured here: PNMT inhibition; at 40 µM; stronger effect = lower value.
Source text: as §1, §2, §3, §4, §5, §6, §7, §8, §9, §10, §11, §12, §13, §14, §15, §16, §17, §18, §19, §20, §21, §22, §23
8. […]

The other results are listed elsewhere or left out. Shown are side measurements of this screen, not its main read-out; they come without a call.
% is scaled to controls: 0 for no effect and ±100 for the full control effect.

On to `COc1ccc(-c2nnc3n2CCN(C(=O)c2ccc(Cl)nc2)C3)cc1`, for which the activity change, negative = inhibition in experiment [1] was -6.74%; in experiment [2] it was 1.2%; in experiment [3], 0.783%; in experiment [4], -1.84%; in experiment [5], -2.71%.
As to `Cc1ccc(CNC(=O)Cn2c(N3CCCCC3)nc(C)c(C)c2=O)cc1`, the activity change, negative = inhibition in experiment [1] is -1.05%; in experiment [2] it was 2.94%; in experiment [3] it was 2.47%; in experiment [4], 3.31%; in experiment [5] it was -6.96%.
Take `CCCCC1CCC(c2nc(-c3ccncc3)no2)CC1` (stereo not given): the activity change, negative = inhibition was -2.11% in experiment [1]; -12.8% in experiment [2]; -5.26% in experiment [3]; -28.6% in experiment [4]; -18.5% in experiment [5].
For the compound `Cc1ccc(CNC(=O)C2(C)Cn3nc(C(=O)NCCCc4ccccc4)cc3C(=O)N2C)cc1` (stereo not given), the activity change, negative = inhibition in experiment [1] was 2.33%; in experiment [2] it was 0%; in experiment [3], -2.85%; in experiment [4] it was 2.72%; in experiment [5], 3.99%.
For the compound `CN(C)c1ccc(NC(=O)NS(=O)(=O)c2ccc(Cl)cc2)cc1`, the activity change, negative = inhibition in experiment [1] is -73.7%; in experiment [2], -83.8%; in experiment [3], -6.3%; in experiment [4], -50.1%; in experiment [5], -49.1%.
Regarding `Cc1ccc(CN2C(=O)c3nc4ccccc4n3CC2(C)C(=O)NCc2ccccc2)cc1` (stereo not given), the activity change, negative = inhibition is 3.95% in experiment [1]; 2.21% in experiment [2]; 7.04% in experiment [3]; 11.7% in experiment [4]; 2.42% in experiment [5].
As for `CC(C)CCC[C@@H](C)[C@H]1CC[C@H]2[C@@H]3CC=C4C[C@@H](OC(=O)NCCN(C)C)CC[C@]4(C)[C@H]3CC[C@]12C`, the activity change, negative = inhibition in experiment [1] is -2.6%; in experiment [2] it was 23.6%; in experiment [3], 11.2%; in experiment [4], 10.3%; in experiment [5], 10.9%.
Take `CN1C(=O)c2cc(C(=O)N3CCCC3)nn2CC1(C)C(=O)NCc1ccc(F)cc1` (stereo not given): the activity change, negative = inhibition in experiment [1] is 5%; in experiment [2], 0%; in experiment [3], -1.35%; in experiment [4] it was 8.36%; in experiment [5], 5.53%.
On to `COc1cc(C(=O)OC(COCCC(C)C)CN2CCOCC2)cc(OC)c1OC` (stereo not given), for which the activity change, negative = inhibition in experiment [1] is 3.43%; in experiment [2], 3.48%; in experiment [3] it was 11.2%; in experiment [4], -5.74%; in experiment [5] it was 4.39%.
For `Cc1cccc(-c2nnn3c2nc(NCCC(C)C)c2ccccc23)c1`, in that order: -6.64%, 2.04%, -7.92%, -9.73% and -11.3%.
In the case of `COC(=O)c1ncn2c1C(=O)N(Cc1cccc(OC)c1)C(C)(C(=O)NC1CCCCCC1)C2` (stereo not given), the activity change, negative = inhibition in experiment [1] was -0.549%; in experiment [2] it was 1.36%; in experiment [3], 2.44%; in experiment [4] it was -1.39%; in experiment [5] it was 0.434%.
Turning to `CC(C)OCCCn1c(=O)c2ccccc2n2c(-c3ccc(F)c(F)c3)nnc12`, the activity change, negative = inhibition is -2.63% in experiment [1]; 5.82% in experiment [2]; 5.92% in experiment [3]; 3.19% in experiment [4]; -2.07% in experiment [5].
Regarding `CC(C)(N)c1ncc(-c2ccc(OC(F)(F)F)cc2)[nH]1`, the activity change, negative = inhibition is -3.42% in experiment [1]; 1.05% in experiment [2]; 6.17% in experiment [3]; -14.3% in experiment [4]; 3.47% in experiment [5].
Turning to `O=C(Cn1nc2n(CCc3ccccc3)c(=O)c3ccccc3n2c1=O)Nc1ccc2c(c1)OCO2`, the activity change, negative = inhibition in experiment [1] was 7.27%; in experiment [2], 0%; in experiment [3], 8.4%; in experiment [4], -1.35%; in experiment [5], 3.28%.
Regarding `CCCC1c2ccc(C)n2CCN1C(=O)Nc1ccc(C)c(Cl)c1` (stereo not given), the activity change, negative = inhibition in experiment [1] is 1.21%; in experiment [2] it was 0%; in experiment [3] it was -2.02%; in experiment [4], 6.88%; in experiment [5], 3.42%.
As for `CC1CCCC(NC(=O)C2(C)Cn3c(nc4ccccc43)C(=O)N2Cc2ccco2)C1C` (stereo not given), the activity change, negative = inhibition is 0.896% in experiment [1]; 0.081% in experiment [2]; 4.94% in experiment [3]; 3.33% in experiment [4]; -0.542% in experiment [5].
Regarding `CCOc1ccc(C(=O)Cn2nc3n(Cc4ccccc4)c(=O)c4ccccc4n3c2=O)cc1`, the activity change, negative = inhibition in experiment [1] came to 5.85%; in experiment [2], 0%; in experiment [3], 13.4%; in experiment [4], 11.4%; in experiment [5] it was 6.9%.
Consider `C=Cc1ccc(Cn2nc3n(C)c(=O)c4ccc(C(=O)NC(C)CC)cc4n3c2=O)cc1` (stereo not given), for which the activity change, negative = inhibition in experiment [1] worked out at 5.03%; in experiment [2], 0%; in experiment [3], 7.95%; in experiment [4], 0.881%; in experiment [5], 6.31%.
Turning to `O=C(CCc1nnc2n(CCc3ccccc3)c(=O)c3ccccc3n12)NCc1ccc(F)cc1`, the activity change, negative = inhibition in experiment [1] is -2.4%; in experiment [2] it was -24.1%; in experiment [3], 10.6%; in experiment [4], 15.6%; in experiment [5] it was -1.57%.
For `O=C(Nc1cccnc1)c1ccc2c(c1)OCCN(c1cccc(OC(F)(F)F)c1)C2`, the activity change, negative = inhibition in experiment [1] is -10.8%; in experiment [2], -9.49%; in experiment [3], -4.87%; in experiment [4] it was -21.3%; in experiment [5], -7.45%.
